In article PMC4336329 (PLoS ONE, 2015):
Among all 310,000 compounds or so, about 14,000 (4.5%) showed an effect of 50% or more. Effects have a minus sign here. The list shows a part of the results.

Target: human ether-à-go-go-related gene (hERG) potassium channel (human, UniProt Q12809)
Test: primary screen, population patch clamp on CHO cells stably expressing hERG
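Also: peak tail current of the secondary pulse compared with the same well before compound.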

human ether-à-go-go-related gene (hERG) potassium channel, sequence (Q12809 whole entry, looked up): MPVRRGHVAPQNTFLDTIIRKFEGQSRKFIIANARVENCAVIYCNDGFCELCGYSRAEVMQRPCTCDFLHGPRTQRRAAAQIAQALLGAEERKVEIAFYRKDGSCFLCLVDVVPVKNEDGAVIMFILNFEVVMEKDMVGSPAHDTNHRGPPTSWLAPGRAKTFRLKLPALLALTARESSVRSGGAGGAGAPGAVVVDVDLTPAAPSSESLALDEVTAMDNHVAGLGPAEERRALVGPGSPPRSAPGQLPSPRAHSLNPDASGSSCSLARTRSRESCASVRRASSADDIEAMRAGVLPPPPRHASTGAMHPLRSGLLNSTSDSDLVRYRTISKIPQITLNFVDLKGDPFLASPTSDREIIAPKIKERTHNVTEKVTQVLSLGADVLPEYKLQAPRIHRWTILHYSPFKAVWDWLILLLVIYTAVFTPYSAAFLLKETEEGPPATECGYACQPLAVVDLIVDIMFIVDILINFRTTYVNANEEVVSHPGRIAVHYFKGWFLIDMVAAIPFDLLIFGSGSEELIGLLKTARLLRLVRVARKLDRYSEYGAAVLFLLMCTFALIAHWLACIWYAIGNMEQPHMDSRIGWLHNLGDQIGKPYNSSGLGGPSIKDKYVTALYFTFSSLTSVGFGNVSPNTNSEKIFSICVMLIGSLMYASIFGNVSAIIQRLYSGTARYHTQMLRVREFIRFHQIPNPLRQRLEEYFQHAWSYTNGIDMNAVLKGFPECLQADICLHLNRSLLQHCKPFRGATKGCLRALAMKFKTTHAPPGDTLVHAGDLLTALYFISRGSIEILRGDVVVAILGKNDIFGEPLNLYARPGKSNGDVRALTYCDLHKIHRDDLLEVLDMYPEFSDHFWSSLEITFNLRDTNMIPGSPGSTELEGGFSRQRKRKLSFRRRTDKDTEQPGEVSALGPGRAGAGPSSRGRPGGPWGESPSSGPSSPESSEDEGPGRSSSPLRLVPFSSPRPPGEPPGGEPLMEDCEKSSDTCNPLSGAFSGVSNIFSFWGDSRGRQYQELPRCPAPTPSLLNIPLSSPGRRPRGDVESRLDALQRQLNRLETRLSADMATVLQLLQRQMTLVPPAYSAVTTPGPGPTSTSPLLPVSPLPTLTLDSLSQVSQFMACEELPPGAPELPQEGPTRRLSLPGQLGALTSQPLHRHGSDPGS

Going from `CCN(CC(=O)Nc1cc(Cl)ccc1C)C(=O)CSCc1c(C)noc1C` to `COc1cc(OC)c(N(C)S(=O)(=O)c2cccc(C(=O)OCc3c(C)noc3C)c2)cc1Cl`, the “hERG current change (%, negative = inhibition) at 10uM” value rises from -11.9% to 16.4%.

Going from `COc1cccc(NC(=O)CSc2nc(O)c(C)c(=O)n2-c2ccc(C)cc2)c1` to `Cc1ccc(NC(=O)CSC2=C(C#N)C(c3ccco3)CC(=O)N2)cc1` (stereo not shown), the “hERG current change (%, negative = inhibition) at 10uM” value falls from 25.9% to -3.4%.

Compared with `COc1cc2c(cc1OC)-c1nc3ccccc3c(=O)n1C(C)(C)C2`, `COc1cc(C(=O)Oc2cc(N)n(S(=O)(=O)c3ccccc3)n2)cc(OC)c1OC` is higher in “hERG current change (%, negative = inhibition) at 10uM” value: -17.4% for the first, 11.3% for the second.

Compared with `OC(CN1CCN(c2ccccn2)CC1)Cn1c2ccccc2c2ccccc21` (stereo not shown), `Cc1ccc(S(=O)(=O)NCc2ccc(C(=O)N3CCN(c4ccccn4)CC3)cc2)cc1` is lower in “hERG current change (%, negative = inhibition) at 10uM” value: -29.8% for the first, -33.6% for the second.

Going from `COc1ccc2nc(N3CCCC3)c(C#N)cc2c1` to `Cc1nc(N2CCN(C)CC2)c2cc(-c3ccccc3)sc2n1`, the “hERG current change (%, negative = inhibition) at 10uM” value falls from 2.79% to -18.7%.

Compared with `Cc1coc2cc3oc(=O)c(CCC(=O)NCCCN4CCOCC4)c(C)c3cc12`, `Cc1ccc(NC(=O)CSc2nc3ccccc3c(=O)n2CCCC(=O)NCCCN2CCOCC2)cc1C` is lower in “hERG current change (%, negative = inhibition) at 10uM” value: -9.89% for the first, -69.1% for the second.

Compared with `CCOC(=O)c1cnn(-c2nc(-c3ccc(F)cc3)cs2)c1C(F)(F)F`, `CCOn1c(=O)c(-c2ccc(F)cc2)[n+]([O-])c2ccccc21` is higher in “hERG current change (%, negative = inhibition) at 10uM” value: -26% for the first, 18.5% for the second.

Compared with `O=C(NCCC1=CCCCC1)c1cnccn1`, `O=C(O)C(=O)O.c1ccc(CNC2=NCCCC2)cc1` is lower in “hERG current change (%, negative = inhibition) at 10uM” value: 13.6% for the first, 1.76% for the second.

Compared with `COc1ccc(C)cc1N(CC(=O)N1CCc2ccccc2C1)S(C)(=O)=O`, `COc1ccc2ccccc2c1/C=N/NC(=O)c1cc(C)[nH]n1` is higher in “hERG current change (%, negative = inhibition) at 10uM” value: -11.7% for the first, -0.221% for the second.

First: O=C(CN1CCOCC1)NCc1ccccc1Cl
Second: N#Cc1c(N)n(CCCN2CCOCC2)c2nc3ccccc3nc12
The “hERG current change (%, negative = inhibition) at 10uM” value of the first is higher: 11.5% for the first, -29.4% for the second.

Going from `CCn1c(SCc2ccccc2)nnc1C1CCCCC1` to `Nn1c(SCc2ccccc2F)nnc1-c1cccnc1`, the “hERG current change (%, negative = inhibition) at 10uM” value rises from -11.2% to 29.5%.

Going from `N#Cc1c(-c2ccccc2)nc(SCC(=O)N(c2ccccc2)c2ccccc2)[nH]c1=O` to `CC(Sc1nnc(-c2ccccc2)c(-c2ccccc2)n1)C(=O)Nc1ncc(Cl)cc1Cl` (stereo not shown), the “hERG current change (%, negative = inhibition) at 10uM” value falls from 11% to -4.28%.

First: Cc1cccc(N2Cc3ccccc3C2=NC(=O)c2ccc(Cl)nc2)c1
Second: O=C(Nc1cccc([N+](=O)[O-])c1)c1ccc2c(c1)C(=O)N(c1ccccn1)C2=O
The “hERG current change (%, negative = inhibition) at 10uM” value of the first is higher: -14.2% for the first, -41.5% for the second.

First: Cc1c(C(=O)N2CCN(c3ccc(F)cc3)CC2)sc2nc(-c3ccccc3)cn12
Second: Cc1nc(-c2ccc(F)cc2)c(CC(=O)N2CCN(S(=O)(=O)c3ccccc3Br)CC2)s1
The “hERG current change (%, negative = inhibition) at 10uM” value of the first is higher: -13.4% for the first, -26.9% for the second.

Going from `CC(Oc1ccc(Cl)cc1Cl)C(=O)OCn1nnc2ccccc2c1=O` (stereo not shown) to `Clc1ccc(/C=N/NC(=Nc2ccccc2)c2ccccn2)c(Cl)c1`, the “hERG current change (%, negative = inhibition) at 10uM” value falls from 11.1% to -2.69%.

Compared with `O=C1NC2(CCCCCC2)N=C1c1ccc(Br)cc1`, `CCc1c(C2(O)CCCCC2)[nH]c2cc(C(F)(F)F)ccc12` is lower in “hERG current change (%, negative = inhibition) at 10uM” value: 4.52% for the first, -4.27% for the second.

Going from `CC(=O)N=Cc1c(C)c(C#N)c(=O)n(C)c1O` to `Cc1c(CCC(=O)O)c(=O)oc2cc(O)ccc12`, the “hERG current change (%, negative = inhibition) at 10uM” value falls from 12.6% to 12.1%.

Compared with `O=C(O)Cc1ccc(NC(=O)C2CC=CCC2C(=O)O)cc1` (stereo not shown), `CC(=O)Nc1ccc(NC(=O)COC(=O)Cc2c[nH]c3ccccc23)cc1` is lower in “hERG current change (%, negative = inhibition) at 10uM” value: 23.7% for the first, 10.2% for the second.

Going from `O=C(Nc1ccc2c(c1)OCCO2)C1CCCN1S(=O)(=O)c1ccc(Cl)cc1` (stereo not shown) to `COc1ccc(Cl)cc1NS(=O)(=O)c1cccc(C(=O)NCC(C)(C)N2CCOCC2)c1`, the “hERG current change (%, negative = inhibition) at 10uM” value falls from -11.3% to -12.6%.

Compared with `Cc1ccc2nc(NC(=O)C3CCCN(S(=O)(=O)c4cccc5nonc45)C3)sc2c1` (stereo not shown), `Cc1ccccc1NC(=O)N1CCCC(c2nc(-c3ccc(C(C)C)cc3)no2)C1` (stereo not shown) is lower in “hERG current change (%, negative = inhibition) at 10uM” value: 5.95% for the first, -12.3% for the second.

Going from `CC(C)[C@H](NS(=O)(=O)c1ccccc1)C(=O)OCC(=O)Nc1ccccc1Sc1ccccc1` to `COc1ccccc1CC(=O)NNC(=O)CN(C)S(=O)(=O)c1ccc(Cl)cc1`, the “hERG current change (%, negative = inhibition) at 10uM” value falls from 1.98% to -1.75%.

First: CC1CCC2(CC1)NC(=O)N(NC(=O)c1cc3ccccc3o1)C2=O (stereo not shown)
Second: CC(=O)N1CCN(Cc2nc3scc(-c4ccccc4)c3c(=O)[nH]2)CC1
The “hERG current change (%, negative = inhibition) at 10uM” value of the first is higher: 15.6% for the first, -9.96% for the second.

Compared with `Cc1nnc(-c2ccc(Cl)cc2)nc1NCCN(C)C`, `Fc1ccccc1N1CCN(Cc2nc(-c3ccc(Cl)cc3Cl)no2)CC1` is higher in “hERG current change (%, negative = inhibition) at 10uM” value: -38.9% for the first, -1.27% for the second.

Going from `OC(c1ccccn1)c1c[nH]c2ccccc12` (stereo not shown) to `O=C(COc1ccccc1)NNc1nc2ccccc2s1`, the “hERG current change (%, negative = inhibition) at 10uM” value falls from 15% to -12.2%.

Compared with `OC1(C#Cc2c(-c3ccsc3)oc3ccc(N4CCOCC4)cc23)CCCCC1`, `O=C(Nc1ccc(N2CCOCC2)cc1)c1cccc2c(Br)cccc12` is lower in “hERG current change (%, negative = inhibition) at 10uM” value: 14.1% for the first, 8.6% for the second.

Going from `CCCCn1c(=O)[nH]c(=O)c2c1nc(-c1ccc(OCCC)c(OCC)c1)n2C` to `COCCn1c(SCC(=O)Nc2cc(C)nn2-c2ccccc2)nnc1-c1ccncc1`, the “hERG current change (%, negative = inhibition) at 10uM” value falls from 2.05% to -37.7%.

Compared with `CCCCCc1nc(-c2nonc2N)no1`, `Nc1ncnc2c1ncn2[C@@H]1O[C@@H]2COP(=O)([O-])O[C@H]2[C@H]1O.[Na+]` is lower in “hERG current change (%, negative = inhibition) at 10uM” value: 14.3% for the first, -22.7% for the second.

Going from `O=C(c1ccc(OC2CCN(Cc3ccccn3)CC2)cc1)N1CCCCCC1` to `CC(CN1CCCCC1)OC(=O)c1ccc(Cl)cc1.Cl` (stereo not shown), the “hERG current change (%, negative = inhibition) at 10uM” value falls from -14.9% to -36.4%.

First: CC1=C2C3OC(=O)C(C)C3CC[C@@]2(C)C=CC1=O (stereo partly shown)
Second: CN(Cc1ccc(Cl)c(Cl)c1)C(=O)C1CSC2(C)CCC(=O)N12 (stereo not shown)
The “hERG current change (%, negative = inhibition) at 10uM” value of the first is higher: 3.23% for the first, -17% for the second.

First: Cl.O=C(Nc1ccccc1)OCC(CN1CCCCC1)OC(=O)Nc1ccccc1 (stereo not shown)
Second: COc1ccc(Cl)c(NC(=O)NCCN2CCN(c3ccccc3)CC2)c1
The “hERG current change (%, negative = inhibition) at 10uM” value of the first is lower: -60.1% for the first, 5.63% for the second.

First: Cc1ccc2ccc(S(=O)(=O)n3nc(C)cc3C)cc2c1
Second: Cc1cc(C)c(S(N)(=O)=O)c(C)c1N(C)S(=O)(=O)c1ccccc1
The “hERG current change (%, negative = inhibition) at 10uM” value of the first is higher: 4.49% for the first, -21.2% for the second.

Going from `CCOc1ccc(S(=O)(=O)N2CCN(C(=S)NC3CC3)CC2)cc1` to `CC1CC(C)CN(c2ccc(S(=O)(=O)N3CCOCC3)cc2)C1` (stereo not shown), the “hERG current change (%, negative = inhibition) at 10uM” value rises from -21.3% to -0.0723%.

First: COc1cc(OC)c(C(=S)N2CCCC2)cc1OC
Second: COC(=O)C1=C(c2ccc(OC)c(OC)c2)C[C@@H]2CC[C@H]1N2C(=O)NCC1CC1
The “hERG current change (%, negative = inhibition) at 10uM” value of the first is lower: -19.8% for the first, 15.1% for the second.

Compared with `CC(C)Sc1nnc(Cn2c(=O)sc3ccccc32)n1-c1ccccc1`, `CC(=O)Nc1ccc(C(=O)N(C)c2ccccc2)cc1` is higher in “hERG current change (%, negative = inhibition) at 10uM” value: 0.741% for the first, 12.4% for the second.

First: C=CCNC(=O)C(=O)NCC(c1ccc2c(c1)OCO2)N1CCOCC1 (stereo not shown)
Second: Cc1ccc(NC(=O)c2ccc(CNc3c(N4CCOCC4)c(=O)c3=O)cc2)cc1
The “hERG current change (%, negative = inhibition) at 10uM” value of the first is higher: 16.7% for the first, -1.09% for the second.

Compared with `C=CCn1c(SCC(=O)N2CC(C)OC(C)C2)nnc1-c1ccncc1` (stereo not shown), `CCOC(=O)N1CCC(N2C(=O)c3ccccc3C2Nc2cccnc2)CC1` (stereo not shown) is lower in “hERG current change (%, negative = inhibition) at 10uM” value: 12.5% for the first, 1.81% for the second.

Compared with `COc1cc(-c2ncc3ccccn23)cc(OC)c1OC.O=C(O)C(=O)O`, `COc1ccc(/C=C/C(=O)c2cc(F)ccc2OC(=O)c2ccc(OC)c(OC)c2)cc1OC` is lower in “hERG current change (%, negative = inhibition) at 10uM” value: 7.76% for the first, -7.09% for the second.

Going from `Cc1ccc(C)c(S(=O)(=O)N2CCN(C(=O)CCC(=O)c3cc(C)sc3C)CC2)c1` to `COc1ccc(OCC(=O)N2CCN(C(=O)COc3ccc(Br)cc3)CC2)cc1`, the “hERG current change (%, negative = inhibition) at 10uM” value falls from -27.9% to -71.9%.

Going from `COc1ccc(C(C(=O)NC2CCCCC2)N(C(=O)c2ccco2)c2ccc(-n3cnnn3)c(C)c2)cc1` (stereo not shown) to `CCc1ccc(N(C(=O)Cc2cccs2)C(C(=O)NC2CCCCC2)c2cn(C)nc2C)cc1` (stereo not shown), the “hERG current change (%, negative = inhibition) at 10uM” value falls from 8.93% to -21.4%.

Going from `COc1ccc(/C=C(\NC(=O)c2ccccc2)C(=O)N/N=C/c2sccc2C)cc1` to `CCc1ccccc1NC(=O)CC1CS(=O)(=O)CC1CC(=O)Nc1ccccc1CC` (stereo not shown), the “hERG current change (%, negative = inhibition) at 10uM” value rises from -2.46% to 12.1%.

First: N#Cc1ccc(OCC(=O)N(C2CCCCC2)C2CCS(=O)(=O)C2)cc1 (stereo not shown)
Second: Cc1c(OC(C)C(=O)N2C[C@H]3C[C@@H](C2)c2cccc(=O)n2C3)ccc2c3c(c(=O)oc12)CCC3 (stereo partly shown)
The “hERG current change (%, negative = inhibition) at 10uM” value of the first is lower: -50.1% for the first, 0.0759% for the second.

Compared with `N#CC1=C(N)Oc2n[nH]c(-c3cccs3)c2C1c1ccoc1` (stereo not shown), `C=C(C)CN(CC)c1nc(N)c2c(N)nc3c(c2c1C#N)CC(=O)N3C12CC3CC(CC(C3)C1)C2` is higher in “hERG current change (%, negative = inhibition) at 10uM” value: -6.01% for the first, 10.5% for the second.

`Cc1occc1C(=O)NC(C)C12CC3CC(CC(C3)C1)C2` (stereo not shown) was tested, and the “hERG current change (%, negative = inhibition) at 10uM” value was -0.651%.
